This experiment has as its target FLAG-tagged RPAP3 (human, UniProt Q9H6T3). The experiment can be described thus: pull-down.

B1: GST-K64A PIH1D1 (natural protein)
chain: not shown
Regarding B1, the binding result was “binds”.
